# Source: the supplement of paper PMC8728848
# The other results are listed elsewhere or left out.
# B1: MGL2 (Mus musculus), Q8JZN1 (protein)
# chain: MTMRYENFQNLEREEKNQEMRNGDKKGGMESPKFALIPSQSFLWRILSWTHLLLFSLGLSLLLLVVISVIGSQNSQLRRDLGTLRAILDNTTSKIKAEFQSLDSRADNFEKGISSLKVDVEDHRQELQAGRDLSQKVTSLESTLEKREQALKTDLSDLTDHVQQLETDLKALTCQLANLKNNGSEVACCPLHWTEHEGSCYWFSESEKSWPEADKYCRLENSHLVVVNSLEEQNFLQNRLANVLSWMGLTDQNGPWRWVDGTDFDKGFKNWRPLQPDNWHGHMLGGGEDCAHFSYDGRWNDDVCQRHYHWICETELGKASSAHSPQLIASVP
# How the values were obtained:
# Assay in all cases: glycan array binding signal (z-score within array); higher = stronger binding
# Conditions in all cases: glycan notation: IUPAC condensed, linker removed
# [1] = biological target: GalNAc(a1-3)GalNAc(b1-3)Gal(a1-4)Gal(b1-4)GlcNAc
# Outline: (§1)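 Arrays were curated from the Consortium for Functional Glycomics database, 3228 in total, and kept only where the protein sequence was available. Binding is expressed as a within-array Z-score. This score was averaged across arrays of the same protein sequence at different concentrations or buffers and across linkers, and negative values can be read as non-binding.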
# GalNAc(b1-3)Gal = biological target: GalNAc(b1-3)Gal
# Outline: as §1
# [2] = biological target: GalNAc(b1-3)Gal(a1-4)Gal(b1-4)GlcNAc
# Outline: as §1
# [3] = biological target: GalNAc(b1-3)Gal(a1-4)Gal(b1-4)GlcNAc(b1-3)Gal(b1-4)Glc
# Outline: as §1
# [4] = biological target: GalNAc(b1-3)Gal(a1-6)Gal(b1-4)Glc
# Outline: as §1
# GalNAc(b1-3)GalNAc = biological target: GalNAc(b1-3)GalNAc
# Outline: as §1
# GalNAc(b1-3)GlcNAc = biological target: GalNAc(b1-3)GlcNAc
# Outline: as §1
# GalNAc(b1-4)Gal(b1-4)Glc = biological target: GalNAc(b1-4)Gal(b1-4)Glc
# Outline: as §1
# GalNAc(b1-4)GlcNAc = biological target: GalNAc(b1-4)GlcNAc
# Outline: as §1
# [5] = biological target: GalNAc(b1-4)GlcNAc(b1-2)Man
# Outline: as §1
# [6] = biological target: GalNAc(b1-4)GlcNAc(b1-2)Man(a1-3)[GalNAc(b1-4)GlcNAc(b1-2)Man(a1-6)]Man(b1-4)GlcNAc(b1-4)GlcNAc
# Outline: as §1
# [7] = biological target: GalNAc(b1-4)GlcNAc(b1-3)GalNAc(b1-4)GlcNAc
# Outline: as §1
# GalNAc(b1-4)GlcNAc6S = biological target: GalNAc(b1-4)GlcNAc6S
# Outline: as §1
# GalNAc(b1-6)GalNAc = biological target: GalNAc(b1-6)GalNAc
# Outline: as §1
# GalNAc3S(b1-4)GlcNAc = biological target: GalNAc3S(b1-4)GlcNAc
# Outline: as §1
# GalNAc3S(b1-4)GlcNAc3S = biological target: GalNAc3S(b1-4)GlcNAc3S
# Outline: as §1
# [8] = biological target: GalNAc3S(b1-4)[Fuc(a1-3)]GlcNAc
# Outline: as §1
# GalNAc4S6S(b1-4)GlcNAc = biological target: GalNAc4S6S(b1-4)GlcNAc
# Outline: as §1
# GalNAc6S(b1-4)GlcNAc = biological target: GalNAc6S(b1-4)GlcNAc
# Outline: as §1
# Glc(a1-4)Glc = biological target: Glc(a1-4)Glc
# Outline: as §1
# [9] = biological target: Glc(a1-4)Glc(a1-4)Glc(a1-4)Glc
# Outline: as §1
# Glc(a1-6)Glc(a1-6)Glc = biological target: Glc(a1-6)Glc(a1-6)Glc
# Outline: as §1
# [10] = biological target: Glc(a1-6)Glc(a1-6)Glc(a1-6)Glc
# Outline: as §1
# Glc(b1-4)Glc = biological target: Glc(b1-4)Glc
# Outline: as §1
# Glc(b1-6)Glc = biological target: Glc(b1-6)Glc
# Outline: as §1
# GlcA(b1-3)Gal = biological target: GlcA(b1-3)Gal
# Outline: as §1
# GlcA(b1-3)GlcNAc = biological target: GlcA(b1-3)GlcNAc
# Outline: as §1
# GlcA(b1-6)Gal = biological target: GlcA(b1-6)Gal
# Outline: as §1
# [11] = biological target: GlcA3S(b1-3)Gal(b1-4)GlcNAc(b1-2)Man
# Outline: as §1
# [12] = biological target: GlcA3S(b1-3)Gal(b1-4)GlcNAc(b1-3)Gal(b1-4)Glc
# Outline: as §1
# [13] = biological target: GlcNAc(a1-3)Gal(b1-4)GlcNAc
# Outline: as §1
# [14] = biological target: GlcNAc(a1-4)Gal(b1-3)GlcNAc
# Outline: as §1
# [15] = biological target: GlcNAc(a1-4)Gal(b1-4)GalNAc
# Outline: as §1
# [16] = biological target: GlcNAc(a1-4)Gal(b1-4)GlcNAc
# Outline: as §1
# [17] = biological target: GlcNAc(a1-4)Gal(b1-4)GlcNAc(b1-3)Gal(b1-4)Glc
# Outline: as §1
# [18] = biological target: GlcNAc(a1-4)Gal(b1-4)GlcNAc(b1-3)Gal(b1-4)GlcNAc
# Outline: as §1
# [19] = biological target: GlcNAc(a1-4)Gal(b1-4)GlcNAc(b1-3)Gal(b1-4)GlcNAc(b1-3)Gal(b1-4)GlcNAc
# Outline: as §1
# [20] = biological target: GlcNAc(a1-4)Gal(b1-4)GlcNAc(b1-3)Gal(b1-4)[Fuc(a1-3)]GlcNAc(b1-3)Gal(b1-4)[Fuc(a1-3)]GlcNAc
# Outline: as §1
binder,measurement,setting,value
B1,glycan array binding signal (z-score),[1],-0.291
same,glycan array binding signal (z-score),GalNAc(b1-3)Gal,4.95
same,glycan array binding signal (z-score),[2],0.739
same,glycan array binding signal (z-score),[3],0.003
same,glycan array binding signal (z-score),[4],0.191
same,glycan array binding signal (z-score),GalNAc(b1-3)GalNAc,-0.19
same,glycan array binding signal (z-score),GalNAc(b1-3)GlcNAc,8.82
same,glycan array binding signal (z-score),GalNAc(b1-4)Gal(b1-4)Glc,-0.127
same,glycan array binding signal (z-score),GalNAc(b1-4)GlcNAc,5.73
same,glycan array binding signal (z-score),[5],0.962
same,glycan array binding signal (z-score),[6],-0.063
same,glycan array binding signal (z-score),[7],2.48
same,glycan array binding signal (z-score),GalNAc(b1-4)GlcNAc6S,3.46
same,glycan array binding signal (z-score),GalNAc(b1-6)GalNAc,-0.3
same,glycan array binding signal (z-score),GalNAc3S(b1-4)GlcNAc,-0.304
same,glycan array binding signal (z-score),GalNAc3S(b1-4)GlcNAc3S,-0.186
same,glycan array binding signal (z-score),[8],-0.19
same,glycan array binding signal (z-score),GalNAc4S6S(b1-4)GlcNAc,-0.236
same,glycan array binding signal (z-score),GalNAc6S(b1-4)GlcNAc,1.15
same,glycan array binding signal (z-score),Glc(a1-4)Glc,-0.213
same,glycan array binding signal (z-score),[9],-0.088
same,glycan array binding signal (z-score),Glc(a1-6)Glc(a1-6)Glc,-0.176
same,glycan array binding signal (z-score),[10],0.014
same,glycan array binding signal (z-score),Glc(b1-4)Glc,-0.143
same,glycan array binding signal (z-score),Glc(b1-6)Glc,-0.253
same,glycan array binding signal (z-score),GlcA(b1-3)Gal,-0.219
same,glycan array binding signal (z-score),GlcA(b1-3)GlcNAc,0.307
same,glycan array binding signal (z-score),GlcA(b1-6)Gal,-0.193
same,glycan array binding signal (z-score),[11],-0.216
same,glycan array binding signal (z-score),[12],-0.239
same,glycan array binding signal (z-score),[13],-0.297
same,glycan array binding signal (z-score),[14],-0.232
same,glycan array binding signal (z-score),[15],-0.217
same,glycan array binding signal (z-score),[16],-0.29
same,glycan array binding signal (z-score),[17],-0.291
same,glycan array binding signal (z-score),[18],-0.191
same,glycan array binding signal (z-score),[19],-0.133
same,glycan array binding signal (z-score),[20],-0.135
